Experimental data taken from PubChem BioAssay AID1645887 (National Center for Advancing Translational Sciences (NCATS), 2021).
Several values for one entry are separate records, joined by “and”; a condition that tells them apart may be missing. Identical values can stand only once. Among all 16,000 compounds or so, about 40 (0.2%) were called active. Not shown: some 1% with an inconclusive outcome. Calls follow the shape of the dose curve; as a rule, active = well fitted activation curve with a large enough effect; inconclusive = small, poorly fitted or top-dose-only effect, or another doubt; inactive = no such curve, though single readings can be large or run the other way. This is one part of the list. Residues, ends and D or L forms follow the SMILES beside them.

Molecular target: Rap guanine nucleotide exchange factor 4 (Homo sapiens) (UniProt Q8WZA2)
Assay: Validation qHTS for agonist of cAMP-regulated guanine nucleotide exchange factor 4 (EPAC2);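 also: exchange makes BODIPY-GDP fluorescence drop when released from Rap1B; series mostly up to about 150 µM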
Conditions: EPAC2 Rap1B BODIPY-GDP exchange, fluorescence; activation: stronger effect = higher value
In short: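 Fluorescent exchange assay: 100 nM EPAC2 with 250 nM RAP1B-BODIPY-GDP and 50 uM GDP; compound added, 5 min at room temperature, then read (ex 480/em 540 nm) every 5 min for 30 min. Normalized to 6.5 mM cAMP agonist control.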
% is scaled to controls: 0 for no effect and ±100 for the full control effect.

Sequence of UniProt Q8WZA2 (Q8WZA2 whole entry, looked up): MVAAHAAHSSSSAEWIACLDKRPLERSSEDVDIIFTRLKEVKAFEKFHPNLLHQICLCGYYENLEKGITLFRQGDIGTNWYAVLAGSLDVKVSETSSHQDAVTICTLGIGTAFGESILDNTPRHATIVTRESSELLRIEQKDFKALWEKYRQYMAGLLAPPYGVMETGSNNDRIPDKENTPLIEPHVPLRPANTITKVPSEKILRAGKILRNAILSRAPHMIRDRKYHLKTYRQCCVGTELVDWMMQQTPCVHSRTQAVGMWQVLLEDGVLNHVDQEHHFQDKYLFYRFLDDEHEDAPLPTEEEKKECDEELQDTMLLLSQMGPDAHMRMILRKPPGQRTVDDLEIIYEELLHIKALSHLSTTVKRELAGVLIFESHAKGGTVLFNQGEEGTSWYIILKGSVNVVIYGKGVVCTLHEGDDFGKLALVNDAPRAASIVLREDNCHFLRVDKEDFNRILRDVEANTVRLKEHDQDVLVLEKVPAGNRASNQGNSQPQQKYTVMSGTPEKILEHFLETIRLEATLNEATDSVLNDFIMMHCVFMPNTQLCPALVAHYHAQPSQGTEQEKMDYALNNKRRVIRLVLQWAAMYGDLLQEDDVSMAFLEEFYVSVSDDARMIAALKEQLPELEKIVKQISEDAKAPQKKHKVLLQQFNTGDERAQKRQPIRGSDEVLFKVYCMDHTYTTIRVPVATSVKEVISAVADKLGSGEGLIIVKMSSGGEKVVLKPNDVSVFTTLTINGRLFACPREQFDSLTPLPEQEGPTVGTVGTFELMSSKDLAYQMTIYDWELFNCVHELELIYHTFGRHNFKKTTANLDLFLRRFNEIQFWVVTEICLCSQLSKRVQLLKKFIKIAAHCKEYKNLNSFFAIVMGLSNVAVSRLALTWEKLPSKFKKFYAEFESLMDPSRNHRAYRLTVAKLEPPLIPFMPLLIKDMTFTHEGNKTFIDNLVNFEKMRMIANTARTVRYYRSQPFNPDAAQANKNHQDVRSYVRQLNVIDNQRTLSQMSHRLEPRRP

activation, inactive:
O=c1c(-c2cccs2)nc2cnc(N3CCNCC3)nc2n1C1CC1 5.82%
CNCC(O)c1ccc(O)c(O)c1 (centres undefined) -8.02% and -9.91%
COc1cc2c(C(=O)c3ccccc3)c3c4c(cc(OC)c(OC)c4c2cc1OC)CCN3C -19.6%
CC(CNC1CCCCC1)OC(=O)c1ccccc1 (centres undefined) -18.8%
CC(C)C[C@@H](CO)N1CCN(C)CCC1=O -16.4%
O=C(O)c1cccc(-c2noc(-c3ccccc3F)n2)c1 10.2%
Nc1ccc(S(=O)(=O)Nc2nccs2)cc1 -0.78% and -23.6%
O=C1c2c(O)cccc2[C@H]([C@@H]2O[C@H](CO)[C@@H](O)[C@H](O)[C@H]2O)c2cc(CO)cc(O)c21 -11.1%
COc1cc2ccc(=O)oc2c(O)c1O -8% and -4.49%
O=C(c1ccco1)N1CCC2(CC1)CN(Cc1cc(C(F)(F)F)cc(C(F)(F)F)c1)C2 -10.8%
COCCn1c(=O)c(-c2ccccc2)nc2cnc(OCc3ccccc3)nc21 -5.55%
Cc1ccc(-c2cc(C(F)(F)F)nn2-c2ccc(S(N)(=O)=O)cc2)cc1 -24.8% and 11.9%
O=C1c2ccccc2C(=O)c2c(O)c(O)cc(O)c21 19.2% and 2.97%
COC1C=CC23c4cc5c(cc4CN(CC2O)C3C1)OCO5 (centres undefined) -11%
CCCOC(=O)c1ccc(O)cc1 -15.6% and -8.79%
COCCn1c(=O)c(-c2cn(C)c3ccccc23)nc2cnc(Oc3cccc(Cl)c3)nc21 -21.8%
COc1ccc(SC[C@H](Cc2ccccc2)N2CC[C@@H](C(C)(C)C)CCC2=O)cc1 -10.5%
OC(C#CCN1CCCC1)(c1ccccc1)c1ccccc1 -7.04%
O=C(NCCCN1CCCCCC1)[C@@H](c1ccccc1)C1CCCCC1 -14%
Cc1ccccc1-c1nc(N(C)C)c2ccccc2n1 -10.8%
C=CCn1c(=O)c2c(nc(-c3ccccc3)n2C)n(C)c1=O -2.28%
CCNc1ncc2nc(-c3ccc(F)cc3)c(=O)n(C)c2n1 -14%
Cc1cnc(CNc2ncnc3ccc(-c4ccc(N(C)C)cc4)cc23)cn1 -0.839%
CS(=O)(=O)Nc1cccc(-c2cncnc2NCc2cccnc2)c1 -23.3%
Clc1ccccc1-c1nccc(NCCN2CCOCC2)n1 -17%
CCN(CC)CCC(=O)N1c2ccccc2Sc2ccc(Cl)cc21 -6.87%
COc1ccc(-c2c(-c3ccc4c(c3)OCO4)noc2-c2ccsc2)cn1 -20.5%
CCC(C)(C)N=C(NC#N)Nc1cccnc1 -9.64%
CCOC(=O)C1=C(C)NC(=S)NC1c1cccc(O)c1 (centres undefined) -28.6%
COC(=O)[C@@H]1C[C@H](NC(=O)c2ccccn2)CN1Cc1cccc2ccccc12 -15.5%
N#Cc1c(N(CC(=O)O)CC(=O)O)sc(C(=O)O)c1CC(=O)O -14.7%
CC[C@H]1OC(=O)[C@H](C)[C@@H](O[C@H]2C[C@@](C)(OC)[C@@H](O)[C@H](C)O2)[C@H](C)[C@@H](O[C@@H]2O[C@H](C)C[C@H](N(C)C)[C@H]2O)[C@](C)(O)C[C@@H](C)CN(C)[C@H](C)[C@@H](O)[C@]1(C)O -0.675%
COCCn1c(=O)c(-c2cn(C)c3ccccc23)nc2cnc(Oc3ccc(OC)cc3)nc21 -0.57%
Cc1csc(SCC(=O)NCC2Cc3cc(-c4cncnc4)ccc3O2)n1 (centres undefined) 4.64%
CN(C)C(=O)CCSC(SCCC(=O)O)c1cccc(/C=C/c2ccc3ccc(Cl)cc3n2)c1 (centres undefined) -8.73%
CC1CC(=O)NN=C1c1ccc(NCC(C)(C)NCC(O)COc2cc(Cl)ccc2C#N)cc1 (centres undefined) -1.39%
CC1(C)S[C@@H]2[C@H](NC(=O)C(C(=O)O)c3ccsc3)C(=O)N2[C@H]1C(=O)O (some centres undefined) -3.91%
COCCNC(=O)COc1ccc(OCCNC[C@H](O)COc2ccccc2)cc1 1.58%
CCOC(=O)/C=C/c1ccc2c(c1)S(=O)(=O)N(c1cccc(OC)c1)[C@H]2CC(=O)OCC -11.1%
COc1ccc(O)c(CN2CCC3(CCC(CNC(=O)C4CCCO4)O3)CC2)c1 (centres undefined) -10.5%
CC(C)NC(=O)N1CC[C@@]2(CCCN(C(=O)c3cccc(F)c3)C2)C1 4.36%
C[C@@H]1C[C@H]2C3C[C@H](F)C4=CC(=O)C=CC4(C)[C@@]3(F)[C@@H](O)CC2(C)[C@@]1(O)C(=O)COC(=O)C(C)(C)C (some centres undefined) -10.2%
Cc1ccc(CNc2ncnc3sc(C(=O)N4CCC(N5CCCC(O)C5)CC4)c(C)c23)o1 (centres undefined) 14.7%
Cc1ccccc1-c1nccc(-n2ccnc2)n1 -7.47%
CCC(O)CNC(=O)c1cnn(-c2ncc3c(n2)-c2ccccc2CCC3)c1C1CC1 (centres undefined) -1.13%
CN[C@H]1CC[C@@H](c2ccc(Cl)c(Cl)c2)c2ccccc21 1.66% and -85.2%
CCOC(=O)C(Cc1ccc(O)cc1)NC(C)=O (centres undefined) -11%
Cc1c(C(=O)NCC2CCCN(C)C2)cnn1-c1nccc(-c2ccco2)n1 (centres undefined) -7.95%
COCC(=O)Nc1cc(C(=O)N2CCSCC2)cc2nc(-c3ccccc3)n(C)c12 -12.2%
COC(=O)[C@H]1[C@@H]2C[C@@H]3c4[nH]c5ccccc5c4CCN3C[C@H]2CC[C@H]1O 0.0575%
c1ccc(Nc2ncncc2-c2ccc3c(c2)OCO3)cc1 -22%
COc1cc(-c2noc(C)c2C#Cc2ccc(N)cc2)cc(OC)c1OC -10.7%
NC1(C(=O)O)CCc2cc(P(=O)(O)O)ccc21 (centres undefined) 15.7%
Cc1cccc(CNc2ccnc(-c3cccc(NS(C)(=O)=O)c3)n2)c1 -16.9%
O=C(NC[C@H]1CCCCN1)c1cc(OCC(F)(F)F)ccc1OCC(F)(F)F -13.1%
C=C1O[C@@](CO)(n2cnc3c(N)ncnc32)[C@H](O)[C@@H]1O 2.13%
CN(C)Cc1ccccc1-c1cc(-n2ccnc2)ncn1 -18%
CN(C)Cc1ccccc1-c1cc(NCc2ccccc2)ncn1 -16.5%
Cn1c(=O)c(CCc2ccccc2)nc2cnc(N3CCNCC3)nc21 2.59%
Cc1ccccc1CN1[C@@H]2c3ccccc3C[C@@H]2OCCS1(=O)=O -24.6%
C[C@@]12CCC(OC(=O)c3ccccc3)CC1CCc1ccccc12 (some centres undefined) 2.88%
CC1(C)SC2C(NC(=O)COc3ccccc3)C(=O)N2C1C(=O)O (centres undefined) 3.14%
COC(=O)[C@H](Cc1ccccc1)NC(=O)[C@@H](N)CC(=O)O (H-Asp-Phe-OMe) -2.44% and -4.96%
COc1ccc2c(c1)-c1nc(-n3ncc(C(=O)N(C)CC4CCCN(C)C4)c3C3CC3)ncc1CC2 (centres undefined) -7.27%
CCOC(=O)N1CCN(C(=O)c2ccc(-c3ccccc3OC)nc2N2CCC(N3CCCC(CO)C3)CC2)CC1 (centres undefined) -0.766%
C1CCC(N=C(NC23CC4CC(CC(C4)C2)C3)N2CCOCC2)CC1 0.0371%
NC1CCN(O)C1=O (centres undefined) -17.5%
O=C(NCCCN1CCOCC1)c1ccc(Cl)cc1 -11%
O=C1CC[C@@H](O)CCN1CC[C@H](Sc1ccc(Br)cc1)c1ccccc1 -23.9%
COC(=O)c1c(OC)cc2c(c1C)Oc1c(Cl)c(O)c(Cl)c(C)c1C(=O)O2 -27.2%
CN(C)c1ccc(-c2cncnc2NCc2ccccc2)cc1 -19.7%
COc1ccc2c(c1)OC(C)CN(CC(=O)NCc1cn[nH]c1-c1ccc(F)cc1)C2 (centres undefined) -9.81%
O=C(O)[C@@H]1[C@H]2C[C@H]3c4[nH]c5ccccc5c4CCN3C[C@@H]2CC[C@@H]1O 8.17%
C=CC1=C(C)C2=Cc3c(C=C)c(C)c4[n]3[Sn+2][n]3c(c(C)c(CCC(=O)O)c3=CC3=NC(=C4)C(C)=C3CCC(=O)O)=CC1=N2 -9.32%
CC(C)c1c(C(=O)NCc2ccccn2)cnn1-c1nccc(-c2ccccc2F)n1 1.63%
Cc1ccccc1-c1cnc(-c2ccncc2)nc1C1CCCN(Cc2ccccc2O)C1 (centres undefined) 10.6%
O=C(NCc1nnc2n1CCN(Cc1cc3c(cc1Cl)OCO3)CC2)c1cccc(F)c1 -5.25%
COc1cccc(CNC(=O)c2c(OC)cc(=O)n3c2CCN(C(=O)c2ccc(C)s2)CC3)c1 4.94%
Cc1ccccc1-c1cncnc1N(C)Cc1ccco1 -3.37%
CCCCCCCCCCCCCCCCCCN(CCCCCCCCCCCCCCCCCC)c1ccc(C=O)cc1 -13.7%
COC(=O)[C@@H]1CCCN1Cc1ccc2c(c1)CN(Cc1ccccc1C)CCO2 0.219%
Cc1ccccc1N=Nc1ccc(N=Nc2c(O)ccc3ccccc23)c(C)c1 -21.4%
O=C(CCC1CCN(Cc2ccccc2)CC1)c1ccc2c(c1)NCCCC2 3.04%
O=C(O)c1c2ccccc2cc2ccccc12 -10.3% and 0.573%
